T1: engineered DEN1 (eDEN1) (UniProt Q96LD8 1-212, C163A | histidine at position 102 to arginine | serine at position 160 to …)
T1 construct: deneddylase DEN1 (SENP8) with C163A, H102R and S160D; source: E. coli BL21-CodonPlus (DE3), purified (HisTrap FF, size exclusion)
T1 sequence: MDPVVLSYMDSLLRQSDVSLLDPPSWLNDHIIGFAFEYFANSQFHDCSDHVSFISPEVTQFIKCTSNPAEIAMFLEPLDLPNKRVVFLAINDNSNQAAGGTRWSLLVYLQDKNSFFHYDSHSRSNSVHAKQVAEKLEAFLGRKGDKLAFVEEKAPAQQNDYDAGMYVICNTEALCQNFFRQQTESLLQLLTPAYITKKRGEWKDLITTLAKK


Biological target: T1, engineered DEN1 (eDEN1)
Assay: fluorescence polarisation; fluorescence anisotropy of 4 nM fluorescein-labelled free or precursor Nedd8 with varying eDEN1; PBS pH 7.4, 0.05% Brij-35, 0.2 mg/mL ovalbumin, 1 mM DTT; excitation 493 nm, emission 556 nm; single-site fit; duplicate
Settings: both partners purified

Row | Binder | Kd [nM]
1 | fluorescein-labeled free Nedd8 (T20C) (natural protein, fluorescein-maleimide on cysteine 20, free (unconjugated, processed) Nedd8, without the five C-terminal residues of the precursor; threonine 20 mutated to cysteine for labelling; also called free Nedd8 labeled with fluorescein) not shown | 6.3
2 | fluorescein-labeled precursor Nedd8 (T20C) (natural protein, fluorescein-maleimide on cysteine 20, precursor Nedd8: the endogenous form with an additional five amino acids extending from the C-terminus of free Nedd8; threonine 20 mutated to cysteine for labelling; Cloned in pET28a; also called precursor Nedd8 labeled with fluorescein) not shown | > 2000

Source: publication PMC11443517, “A Modular Biosensor Design for Quantitative Measurement of Free Nedd8” (ACS Sensors, 2024)
